Assay results taken from PubChem BioAssay AID761 (NMMLSC, 2007).
The campaign covered roughly 190,000 compounds. About 400 (0.21%) were called active. This list was built around the results that the source calls inconclusive (neither active nor inactive); the mix of calls is not that of the screen.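 Rule for the calls: active = percent activity GTP binding at least 20 points away from the 100% baseline, either down as inhibitor or up as activator; inconclusive = compound flagged as likely green fluorescent from well-wide comparison; inactive = the rest.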

Biological target: Cell division control protein 42 homolog (Homo sapiens) (UniProt P60953)
Test: wildtype Cdc42 fluorescent GTP binding changes, either direction – biochemical, multiplex bead flow cytometry, Bodipy-GTP, primary screen (AID 761);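 note: median bead fluorescence of bound Bodipy-FL-GTP at 100 nM; 0% = excess unlabeled GTP control and 100% = no compound control; below 100% means less GTP binding so inhibitor and above means activator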
Details: GST-Cdc42 beads, at 10 µM, actives lie on both sides

Chain of UniProt P60953 (P60953 whole entry, looked up): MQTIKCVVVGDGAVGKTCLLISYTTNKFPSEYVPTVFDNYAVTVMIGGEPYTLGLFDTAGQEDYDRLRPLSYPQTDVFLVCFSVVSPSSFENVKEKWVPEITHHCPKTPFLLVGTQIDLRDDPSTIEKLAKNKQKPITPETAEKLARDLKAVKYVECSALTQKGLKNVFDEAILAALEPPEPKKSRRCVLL

SMILES	percent activity (GTP binding)
O=C(Nc1ccccc1[N+](=O)[O-])c1nc[nH]c1C(=O)NCCO	inconclusive: 93%
O=C(Nc1ccccc1C(=O)O)c1ccc(Br)c(S(=O)(=O)NCc2ccccc2)c1	inconclusive: 89%
COCCCNc1c2c3c(cccc3[nH]c1=O)C(=O)c1ccccc1-2	inactive: 86%
CN(C(=O)CSc1nnc(-c2ccccc2)o1)c1c(N)n(Cc2ccccc2)c(=O)[nH]c1=O	inactive: 91%
CC(C)N(CCc1ccncc1)C(=O)Nc1ccc(Cl)c(Cl)c1	inactive: 99%
O=C(CCCOc1ccccc1)NCc1ccco1	inconclusive: 109%
CCn1c(OC)nc2c1c(=O)n(C)c(=O)n2C	inconclusive: 91%
Cc1ccc2nc3c(cc(C(=O)NC4CCCC4)c(=N)n3CCCn3ccnc3)c(=O)n2c1	inconclusive: 92%
Cc1nnc(SCC(=O)c2c(N)n(Cc3ccccc3)c(=O)n(C)c2=O)n1C	inconclusive: 89%
Cc1ccc(C(=O)Nc2ccc3c(c2)OCO3)cc1S(=O)(=O)N1CCCC1	inconclusive: 86%
CCN(C(=O)Cn1cnc2cc([N+](=O)[O-])ccc2c1=O)C1CCS(=O)(=O)C1 (centres undefined)	inconclusive: 84%
CS(=O)(=O)N1CCN(c2ccccc2NC(=O)C(c2ccccc2)c2ccccc2)CC1	inactive: 100%
CCCn1c(N)c(C(=O)CSc2nc3ccccc3c(=O)n2Cc2ccccc2)c(=O)[nH]c1=O	inconclusive: 95%
CCCc1ccccc1OCCNC(=O)c1cc(=O)n(C)c(=O)n1C	inactive: 96%
O=C(NC1CCCCC1)C(c1cccs1)N(C(=O)c1ccco1)c1ccc2c(c1)OCCO2 (centres undefined)	inactive: 99%
COc1ccccc1NC(=O)c1ccc2nc(-c3ccccc3)c(-c3ccccc3)nc2c1	inconclusive: 104%
COC(=O)COc1ccc(/C=C2/SC(=O)N(CC(=O)N3CCCC3)C2=O)cc1Br	inconclusive: 105%
Cc1ccc(S(=O)(=O)/N=c2\ccc(Cl)cn2C(F)F)cc1	inactive: 100%
CCn1cc(C(=O)NCc2ccco2)c(=O)c2cc(S(=O)(=O)N3CC(C)CC(C)C3)ccc21 (centres undefined)	inconclusive: 94%
CSc1nc(=O)n2cc(C)ccc2n1	inactive: 98%
COc1ccccc1/C=C1\S/C(=N/NC(=O)c2cccc(Br)c2)NC1=O	inconclusive: 91%
CC1Cc2ccccc2N1C(=O)CSc1nnc2c(n1)[nH]c1ccc(F)cc12 (centres undefined)	inconclusive: 85%
O=C(/C=C/c1ccc(Cl)cc1Cl)NCCSCc1ccccc1	inconclusive: 93%
CC(C)(C)c1ccc(C(=O)CSc2ncn[nH]2)cc1	inactive: 103%
